# Measurements: the supplement of paper PMC3334620
# In all, about 33,000 sequences were measured (“E-score (-0.5 to 0.5)”: median about -0.016, highest 2% from about 0.32 on). Some of the results follow.
# Molecular target: T1, Stp1 (UniProt B3LFK1)
# T1 sequence: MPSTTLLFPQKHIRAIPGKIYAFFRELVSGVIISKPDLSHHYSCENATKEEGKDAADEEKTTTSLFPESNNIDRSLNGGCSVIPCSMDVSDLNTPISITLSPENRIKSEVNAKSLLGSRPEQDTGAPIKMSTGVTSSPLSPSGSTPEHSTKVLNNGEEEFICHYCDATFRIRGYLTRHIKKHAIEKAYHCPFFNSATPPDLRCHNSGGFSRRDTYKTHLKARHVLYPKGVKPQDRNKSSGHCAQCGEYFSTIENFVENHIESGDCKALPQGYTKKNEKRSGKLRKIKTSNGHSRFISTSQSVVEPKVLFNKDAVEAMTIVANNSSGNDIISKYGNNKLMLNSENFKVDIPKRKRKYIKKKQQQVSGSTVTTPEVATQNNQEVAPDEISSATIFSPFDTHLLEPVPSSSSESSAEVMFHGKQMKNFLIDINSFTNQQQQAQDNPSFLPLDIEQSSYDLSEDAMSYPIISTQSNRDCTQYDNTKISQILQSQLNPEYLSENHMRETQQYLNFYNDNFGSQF
# Assay: PBM E-score (8-mer binding enrichment) (E-score (-0.5 to 0.5)); higher = stronger / more preferred TF binding; most listed sequences are background and not binding sites
# Conditions: protein concentration: 200 nM; construct: GST-full length
# In short: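 PURExpress in vitro transcription/translation supplied GST-tagged yeast transcription factors, either full-length or DNA-binding domain. Applied at about 100-200 nM to universal all-10-mer Agilent arrays double-stranded by primer extension, the bound protein was detected with fluorescent anti-GST. E-scores, modified Wilcoxon-Mann-Whitney statistics, were given by the Universal PBM Analysis Suite to ungapped eight-base words pooled with their reverse complements after masliner normalisation.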
row,Sequence,PBM E-score
1,CTGCGTGA,0.0745
2,GGTATGAA,-0.0273
3,CGTGCTTA,0.219
4,ACTATTCT,-0.0825
5,GCCATCCC,-0.0793
6,CCTACATC,-0.191
7,GCTCATCA,0.0105
8,ACAGACAC,0.0213
9,ACACCGAT,-0.123
10,CAATATAC,0.0063
11,CTCGCGTC,-0.113
12,CCGGCGTC,0.0446
13,ACCGCATA,0.0344
14,AGTTGACA,0.142
15,TCGATCAA,-0.0721
16,AGAACGCA,-0.00423
17,TGAGCAAA,0.0471
18,AGAATTGC,0.08
19,CAATAACA,0.0711
20,CCAAGGAC,-0.0498
21,CAAGCTGC,0.0162
22,AGTGCTAC,-0.155
23,ATGTCCGC,0.0811
24,CTGTCTGA,0.0893
25,TCTGTCAA,0.13

row,Sequence,PBM E-score
1,CCCTAGGA,-0.314
2,AGGTACAT,-0.148
3,CTCGTATC,0.0757
4,CAACAGTC,-0.0399
5,CGGTTTCC,0.0565
6,AATCACGA,-0.117
7,CACAAAAC,0.0388
8,CCCCATCC,-0.0257
9,GAATTATC,0.0699
10,CGTGCATA,0.168
11,TTAGATAA,-0.0192
12,TCGGACAA,0.0763
13,GACATCGC,-0.25
14,ATAAGGTG,0.111
15,ATGGTCCA,-0.133
16,TATACTCA,-0.0648
17,ACGAACCC,-0.0646
18,CCGAAGAA,0.0221
19,AGTCCTTC,-0.35
20,ATAGGAAA,0.0095
21,GCCAAACC,-0.221
22,GTGAGACA,-0.0539
23,ATCCTATC,-0.00077
24,AGTCAGTA,0.134
25,ATAATTTC,0.24

row,Sequence,PBM E-score
1,GCTCCTCA,-0.106
2,CAAAGCAA,0.136
3,CGAGCGGC,0.416
4,CGATGCCG,0.415
5,CCCATCCA,0.00825
6,AATTCCGG,0.0797
7,AGTCAGTC,-0.089
8,GAGCTAAC,-0.0397
9,ACCCCAAT,-0.242
10,GCCGGCCA,-0.0401
11,ACTCAACC,-0.0254
12,CCCGCGTA,-0.0603
13,TACCGGAA,-0.0487
14,CTCGGTAC,-0.335
15,CCCGACAA,0.13
16,AGTAGAGA,-0.0676
17,CTAGGACC,-0.409
18,GAGCGGGC,-0.0929
19,ATGGGCAC,0.232
20,AGGATGAA,-0.154
21,CGTCTGTA,0.00232
22,AGTATAAA,0.297
23,GCGCTCAC,0.0573
24,ACAATGGG,-0.134
25,AGTCCCGG,-0.236

row,Sequence,PBM E-score
1,GAAACCCA,0.0619
2,CTTAACAA,0.169
3,AAAGCTCA,-0.152
4,AGACAATC,0.0749
5,AAGCCTAG,-0.0261
6,CTGCACGC,-0.0205
7,ACAGATCG,0.0507
8,GCGCTATA,0.0289
9,AGCTGCGG,0.0478
10,CACGTTAA,0.103
11,TGAGACCA,-0.118
12,ATCTGTTG,-0.049
13,GACACAAA,0.2
14,CCTTTCTA,0.165
15,CGTAGGAC,-0.0121
16,AGGCGAGA,-0.0565
17,AGAATGAG,-0.145
18,ACAAGAAA,0.118
19,ACCAGGAC,-0.0533
20,ACTCACCG,-0.125
21,CGACTAGA,-0.157
22,CCAGGCTA,-0.284
23,AGAATCAC,0.12
24,CCACGTCG,-0.27
25,ACAACGGG,0.0834

row,Sequence,PBM E-score
1,GCTTACTA,0.102
2,CGCGATAC,0.00474
3,AATCCATA,0.0806
4,CGGAATCC,-0.0886
5,CTCGTGCA,-0.0129
6,CTTGAGCA,0.0418
7,ACGGCAAT,0.45
8,CCGACGGA,-0.107
9,GTAGGACA,-0.0209
10,CATTTGAC,0.0371
11,GAAAATTA,-0.0415
12,GGAACAAA,0.105
13,GCGACTCA,-0.0205
14,GTCCCAAA,-0.122
15,CTAACTAC,-0.0793
16,TCACGTGA,0.211
17,CAGGCTCG,-0.0929
18,ACTTCAGG,0.0136
19,AGAACATA,0.00125
20,ATACGAGC,0.118
21,GTTCTGTA,0.0215
22,CATACTGG,-0.0651
23,ATACTGAA,0.101
24,AACACCTG,0.00724
25,AGCCGCCG,0.361

row,Sequence,PBM E-score
1,ATCATACG,0.196
2,AAGGAACG,0.0123
3,TAAAAAGA,0.0945
4,ACGTGCGC,0.165
5,CTTGACAC,-0.064
6,ATCCGGCC,-0.213
7,GCCCTATA,0.206
8,CATGCTGA,-0.107
9,CAACGCCA,0.0795
10,TTCCCAAA,0.0505
11,CGTGATTA,-0.00773
12,CCAGGCGC,-0.113
13,GAGTTAAC,-0.0768
14,AGGCTATG,-0.196
15,GAACATCA,-0.0725
16,GCTCGTCC,-0.0754
17,ATGTGTAA,0.00541
18,CAGTGCGC,-0.175
19,ACGACGAC,-0.0442
20,GAAGCATC,-0.213
21,CCAATGGA,-0.0655
22,CAGCTGGC,-0.0206
23,CGTTGACC,0.0297
24,ACCCCAGG,-0.221
25,CTTAACGC,-0.0215

row,Sequence,PBM E-score
1,AACCAGCT,-0.0344
2,AGTCAGAT,-0.194
3,CTGGAACC,-0.275
4,AGGTCTAT,-0.115
5,AGATCAAT,0.0248
6,TCTCGAGA,-0.01
7,ACCGCAGA,-0.0884
8,GCTTATAA,0.163
9,CATAAGCA,-0.186
10,TAACACCA,0.0396
11,AACATACT,0.00864
12,ACATGTTA,0.0118
13,CTAGTATC,-0.00688
14,AGCCGAGG,0.142
15,AATTTGAA,0.105
16,GATCTAGC,-0.0987
17,CCGATAAG,-0.0367
18,CTATATGC,0.00966
19,CGACGCTA,-0.0819
20,CCCGTGCA,0.0223
21,CCTCAGAG,-0.135
22,GATTGAAA,0.0968
